About 7,500 (2.1%) of roughly 360,000 compounds were called active. This list was built around the results that the source calls inconclusive (neither active nor inactive); the mix of calls is not that of the screen. Calls come from the whole dose curve; as a rule, active = well fitted cell-killing curve with a large enough effect; inconclusive = small, poorly fitted or top-dose-only effect, or effect the other way, or another doubt; inactive = no such curve, though single readings can be large or run the other way. Potencies of inconclusive entries are left out as doubtful fits.
Test: qHTS for induction of synthetic lethality in tumor cells producing 2HG: qHTS for the HT-1080-IDH1KD cell line;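 for activity, negative = toxicity: 0% = DMSO wells and -100% = cell-free medium wells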
Conditions: HT-1080 IDH1 knockdown viability, ATP luminescence, 48 h; activity, negative = toxicity: at 46.1 µM (top of the series) unless noted
How it was run: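 After a 2 h attachment period, IDH1KD HT-1080 cells took pin-transferred compound for 48 h at 37 °C; ATP-based luminescence after 10 min room-temperature reagent incubation reported viability.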
Potency is the fitted concentration of half-maximal effect; tags give direction and shape of the fitted curve.

Row | SMILES | Potency | activity, negative = toxicity
1 | CCCn1c(=O)c(C(=O)NCc2ccccn2)c(O)c2ccccc21 | inconclusive [cytotoxic, single point] | 
2 | O=C(OCc1cccc(Cl)c1)c1cc([N+](=O)[O-])ccc1N1CCOCC1 | inconclusive [cytotoxic, single point] | 
3 | CC(O)(c1ccccc1)c1nc(-c2ccc3c(c2)OCO3)cs1 (centres undefined) | inconclusive [cytotoxic, single point] | 
4 | CCCc1cnc(NCCNCC(O)COc2ccc(Cl)c(Cl)c2)nc1 (centres undefined) | active: 20.6 µM | 
5 | CCCCCCCn1c2c(c(=N)c3ccccc31)CCC2 | active: 11.6 µM | 
6 | Cc1ccc(NC(=O)c2csc(-c3ccccc3)c2C)cc1 | inconclusive [cytotoxic, single point] | 
7 | CCN(CCO)c1ccc(Nc2cc(-c3ccc(-c4ccccc4)cc3)ncn2)cc1 | inconclusive [cytotoxic, single point] | 
8 | CCOC(=O)c1[nH]c2ccc(OC)cc2c1NC(=S)N1CCN(c2ccccc2OC)CC1 | active: 13 µM | 
9 | CCc1c(C(=O)NCCc2cccc(C)c2)[nH]c(C)c1C(C)=O | inconclusive [cytotoxic, full curve, poor fit] | 
10 | COc1ccc(NC(=O)CC2C(=O)N(C)C(=S)N2CCc2ccc(F)cc2)cc1 (centres undefined) | inconclusive [cytotoxic, partial curve] | 
11 | COC1=C(c2ccccc2)C(=O)c2ccccc2C1=O | active: 25.9 µM | 
12 | O=C(CNC(=O)c1ccc(-c2ccccc2)cc1)OCc1c(Cl)cccc1Cl | inconclusive [cytotoxic, single point] | 
13 | COc1cccc(-c2nc(-c3ccccc3)nc(N3CCN(C)CC3)c2C#N)c1 | inconclusive [cytotoxic, single point] | 
14 | CCN1CCN(c2ccc(S(=O)(=O)N3CCCCC3)cc2NC(=O)Cc2c(F)cccc2Cl)CC1 |  | inactive: 5.73%
15 | COc1ccc(CCN2C(=O)c3[nH]nc(-c4ccccc4O)c3C2c2cccc(Cl)c2)cc1 (centres undefined) | active: 11.6 µM | 
16 | O=C(COc1cc(F)ccc1[N+](=O)[O-])Nc1cccc(S(=O)(=O)NC2=NCCC2)c1 | inconclusive [cytotoxic, single point] | 
17 | O=C(Nc1ncc2c(n1)-c1ccccc1CC2)c1ccc(Cl)cc1 | inconclusive [cytotoxic, single point] | 
18 | COc1cc(N)ccc1Nc1c2ccccc2nc2ccccc12 | active: 23.1 µM | 
19 | CCOc1ccc(-c2cc(C(=O)N/N=C(\C)c3cccnc3)c3ccccc3n2)c(OCC)c1 | inconclusive [cytotoxic, partial curve] | 
20 | COc1cccc(-c2cnc3c(NC(C)=O)cc(-c4ccc(S(C)(=O)=O)cc4)cn23)c1 | inconclusive [cytotoxic, single point] | 
21 | Cn1c(-c2ccc(Br)cc2)cnc1NCc1ccc(C#N)cc1 |  | inactive: -2.8%
22 | CC[C@]12c3[nH]c4ccccc4c3CCN1C(=O)C(CC(=O)NCc1cccc(C(F)(F)F)c1)C[C@@H]2C(=O)N1CCN(C(=O)c2ccco2)CC1 (some centres undefined) | inconclusive [cytotoxic, full curve] | 

Row | SMILES | Potency | activity, negative = toxicity
23 | Cc1cccc(C(=O)NNC(=O)c2csc(N3CCOCC3)n2)c1C |  | inactive: 8.12%
24 | COc1ccc(C(=O)c2ccc(CC#N)s2)cc1 | inconclusive [cytotoxic, single point] | 
25 | CCCCCCCCN1C(=O)[C@H](CC(=O)N2CCCCC2)C[C@@]2(C(=O)OCC)CCCC=C12 | inconclusive [cytotoxic, single point] | 
26 | COc1ccc(OC)c(N(CC(=O)Nc2ccccc2C(=O)NCc2ccco2)S(C)(=O)=O)c1 | inconclusive [rising, single point] | 
27 | O=C(Nc1ccnn1C1CCN(C/C=C/c2ccccc2)CC1)c1cccc(F)c1 | inconclusive [cytotoxic, single point] | 
28 | Cc1ccc(SCC(=O)NC2CCCCCC2)cc1 |  | inactive: 5.33%
29 | Cc1ccc(-c2nn(C)c(=O)c3ccccc23)cc1S(=O)(=O)N1CCOCC1 |  | inactive: -1.23%
30 | COc1ccc(N=Cc2c(O)[nH]c3ccccc23)cc1 | inconclusive [rising, full curve, poor fit] | 
31 | Nc1nc(-c2ccc(Cl)cc2)cc(C(F)(F)F)n1 |  | inconclusive: 31.2%
32 | CCCSc1nnc(Sc2nnnn2-c2ccccc2)s1 | active: 23.1 µM | 
33 | Cc1nc2c(-c3ccccc3)c(C)[nH]n2c(=O)c1Cc1ccccc1 | inconclusive [cytotoxic, full curve] | 
34 | COc1ccc(C(=O)Nc2nc3c(s2)CCCC3)cc1S(=O)(=O)N1CCCc2ccccc21 | inconclusive [cytotoxic, single point] | 
35 | COc1ccc(C(=O)Nc2ccc(OCC(F)(F)C(F)F)c(C(F)(F)F)c2)cc1OC | inconclusive [cytotoxic, partial curve] | 
36 | CC1(c2ccccc2Cl)NC(=O)N(CC(=O)N2CCN(S(=O)(=O)c3ccccc3)CC2)C1=O (centres undefined) |  | inactive: 3.83%
37 | CN1CCN(NC(=O)c2ccc(Cl)c(S(=O)(=O)Nc3ccc(Cl)cc3)c2)CC1 |  | inactive: -0.418%
38 | Cc1cccc2sc(N(CCCN(C)C)C(=O)c3ccco3)nc12 | inconclusive [cytotoxic, single point] | 
39 | CCNCc1cc(OCC)c(OCC(=O)NCCc2ccccc2)cc1Cl | inconclusive [cytotoxic, single point] | 
40 | CCOc1cccc(N)c1 |  | inactive: -5.11%
41 | Cc1cc(C(=O)CN2C(=O)C(=O)N(Cc3ccco3)C2=O)c(C)n1CCc1ccccc1 | inconclusive [cytotoxic, single point] | 
42 | CN1/C(=C\C(=O)Nc2ccc(Cl)cc2)C(C)(C)c2ccccc21 |  | inactive: -18.3%
43 | CC[C@]12c3[nH]c4ccc(Cl)cc4c3CCN1C(=O)[C@@H](CC(=O)NC/C=C(\C)CCC=C(C)C)C[C@@H]2C(=O)N1CCN(C(=O)c2ccco2)CC1 | active: 14.6 µM | 
44 | COc1ccccc1CNCCS(=O)(=O)NN1CCOCC1 |  | inactive: 1.62%

Reference: PubChem BioAssay AID686971 (National Center for Advancing Translational Sciences (NCATS), 2013)
